# Source: the supplement of paper PMC8728848
# The list shows a part of the results.
# B1: Gal 3 (Canis lupus) (protein)
# chain: MADSFSLNDALSGSGNPNPQGWPGPWGNQPAGAGGYPGASYPGAYPGQAPPGGYPGQAPPGGYPGQAPPGGYPGQAPPGGYPGQAPPGGYPGQAPPGTYPGPTAPAYPGPTAPGTQPGQPSGPGAYPPPGQPSAPGAYPAAGPFGIPAGPLTVPYDLPLPGGVKPRMLITILGTVRPSANRLALDFKRGNDVAFHFNPRFNEDNKRVIVCNTKLDNIWGKEERQAAFPFESGKPFKIQVLVESDHFKVAVNDAHLLQYNHRMKNLPEISKLGISGDIDLTSASYAMI
# Legend:
# Test in all cases: glycan array binding signal (z-score within array); higher = stronger binding
# Conditions in all cases: glycan notation: IUPAC condensed, linker removed
# [1] = molecular target: Gal(b1-4)GalNAc(b1-3)[Fuc(a1-2)]Gal(b1-4)GlcNAc
# Procedure, shortened: (§1)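 Negative Z-scores can be read as non-binding. The Z-score is calculated within each array and then averaged across arrays of one protein sequence at different concentrations or buffers and across linkers. Arrays, 3228 in all, were curated from the Consortium for Functional Glycomics database and kept only where the protein sequence was available.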
# Gal(b1-4)Glc = molecular target: Gal(b1-4)Glc
# Procedure, shortened: as §1
# Gal(b1-4)Glc6S = molecular target: Gal(b1-4)Glc6S
# Procedure, shortened: as §1
# Gal(b1-4)GlcNAc = molecular target: Gal(b1-4)GlcNAc
# Procedure, shortened: as §1
# [2] = molecular target: Gal(b1-4)GlcNAc(a1-6)Gal(b1-4)GlcNAc
# Procedure, shortened: as §1
# [3] = molecular target: Gal(b1-4)GlcNAc(b1-2)Man(a1-3)Man(b1-4)GlcNAc(b1-4)GlcNAc
# Procedure, shortened: as §1
# [4] = molecular target: Gal(b1-4)GlcNAc(b1-2)Man(a1-3)[Gal(b1-4)GlcNAc(b1-2)Man(a1-6)]Man(b1-4)GlcNAc(b1-4)GlcNAc
# Procedure, shortened: as §1
# [5] = molecular target: Gal(b1-4)GlcNAc(b1-2)Man(a1-3)[Gal(b1-4)GlcNAc(b1-2)Man(a1-6)]Man(b1-4)GlcNAc(b1-4)[Fuc(a1-6)]GlcNAc
# Procedure, shortened: as §1
# [6] = molecular target: Gal(b1-4)GlcNAc(b1-2)Man(a1-3)[Gal(b1-4)GlcNAc(b1-2)][GlcNAc(b1-4)]Man(b1-4)GlcNAc(b1-4)GlcNAc
# Procedure, shortened: as §1
# [7] = molecular target: Gal(b1-4)GlcNAc(b1-2)Man(a1-3)[GlcNAc(b1-2)Man(a1-6)]Man(b1-4)GlcNAc(b1-4)GlcNAc
# Procedure, shortened: as §1
# [8] = molecular target: Gal(b1-4)GlcNAc(b1-2)Man(a1-3)[Man(a1-6)]Man(b1-4)GlcNAc(b1-4)GlcNAc
# Procedure, shortened: as §1
# [9] = molecular target: Gal(b1-4)GlcNAc(b1-2)Man(a1-6)Man(b1-4)GlcNAc(b1-4)GlcNAc
# Procedure, shortened: as §1
# [10] = molecular target: Gal(b1-4)GlcNAc(b1-2)Man(a1-6)[GlcNAc(b1-2)Man(a1-3)]Man(b1-4)GlcNAc(b1-4)GlcNAc
# Procedure, shortened: as §1
# [11] = molecular target: Gal(b1-4)GlcNAc(b1-2)Man(a1-6)[Man(a1-3)]Man(b1-4)GlcNAc(b1-4)GlcNAc
# Procedure, shortened: as §1
# [12] = molecular target: Gal(b1-4)GlcNAc(b1-2)[Gal(b1-4)GlcNAc(b1-4)]Man(a1-3)[Gal(b1-4)GlcNAc(b1-2)Man(a1-6)]Man(b1-4)GlcNAc(b1-4)GlcNAc
# Procedure, shortened: as §1
# [13] = molecular target: Gal(b1-4)GlcNAc(b1-2)[Gal(b1-4)GlcNAc(b1-4)]Man(a1-3)[Gal(b1-4)GlcNAc(b1-2)[Gal(b1-4)GlcNAc(b1-6)]Man(a1-6)]Man(b1-4)GlcNAc(b1-4)GlcNAc
# Procedure, shortened: as §1
# [14] = molecular target: Gal(b1-4)GlcNAc(b1-2)[Gal(b1-4)GlcNAc(b1-4)]Man(a1-3)[GlcNAc(b1-4)][Gal(b1-4)GlcNAc(b1-2)Man(a1-6)]Man(b1-4)GlcNAc(b1-4)GlcNAc
# Procedure, shortened: as §1
# [15] = molecular target: Gal(b1-4)GlcNAc(b1-2)[Gal(b1-4)GlcNAc(b1-6)]Man(a1-6)[GlcNAc(b1-4)][Gal(b1-4)GlcNAc(b1-2)Man(a1-3)]Man(b1-4)GlcNAc(b1-4)GlcNAc
# Procedure, shortened: as §1
# [16] = molecular target: Gal(b1-4)GlcNAc(b1-3)Gal(b1-3)GlcNAc
# Procedure, shortened: as §1
# [17] = molecular target: Gal(b1-4)GlcNAc(b1-3)Gal(b1-4)Glc
# Procedure, shortened: as §1
# [18] = molecular target: Gal(b1-4)GlcNAc(b1-3)Gal(b1-4)GlcNAc
# Procedure, shortened: as §1
# [19] = molecular target: Gal(b1-4)GlcNAc(b1-3)Gal(b1-4)GlcNAc(b1-3)Gal(b1-4)GlcNAc
# Procedure, shortened: as §1
# [20] = molecular target: Gal(b1-4)GlcNAc(b1-3)Gal(b1-4)[Fuc(a1-3)GlcNAc(b1-6)]Gal(b1-4)Glc
# Procedure, shortened: as §1
# [21] = molecular target: Gal(b1-4)GlcNAc(b1-3)Gal(b1-4)[Fuc(a1-3)]GlcNAc(b1-3)Gal(b1-4)[Fuc(a1-3)]GlcNAc
# Procedure, shortened: as §1
# [22] = molecular target: Gal(b1-4)GlcNAc(b1-3)GalNAc
# Procedure, shortened: as §1
# [23] = molecular target: Gal(b1-4)GlcNAc(b1-3)[Gal(b1-4)GlcNAc(b1-6)]Gal(b1-4)GlcNAc
# Procedure, shortened: as §1
# [24] = molecular target: Gal(b1-4)GlcNAc(b1-3)[Gal(b1-4)GlcNAc(b1-6)]GalNAc
# Procedure, shortened: as §1
# [25] = molecular target: Gal(b1-4)GlcNAc(b1-3)[GlcNAc(b1-6)]Gal(b1-4)GlcNAc
# Procedure, shortened: as §1
# [26] = molecular target: Gal(b1-4)GlcNAc(b1-6)Gal(b1-4)GlcNAc
# Procedure, shortened: as §1
# [27] = molecular target: Gal(b1-4)GlcNAc(b1-6)GalNAc
# Procedure, shortened: as §1
# [28] = molecular target: Gal(b1-4)GlcNAc(b1-6)[Gal(b1-3)]GalNAc
# Procedure, shortened: as §1
# Gal(b1-6)Gal = molecular target: Gal(b1-6)Gal
# Procedure, shortened: as §1
# Gal3S(b1-3)GalNAc = molecular target: Gal3S(b1-3)GalNAc
# Procedure, shortened: as §1
# Gal3S(b1-3)GlcNAc = molecular target: Gal3S(b1-3)GlcNAc
# Procedure, shortened: as §1
# [29] = molecular target: Gal3S(b1-3)[Fuc(a1-4)]GlcNAc
# Procedure, shortened: as §1
# Gal3S(b1-4)Glc = molecular target: Gal3S(b1-4)Glc
# Procedure, shortened: as §1
# Gal3S(b1-4)Glc6S = molecular target: Gal3S(b1-4)Glc6S
# Procedure, shortened: as §1
binder,measurement,setting,value
B1,glycan array binding signal (z-score),[1],-0.247
same,glycan array binding signal (z-score),Gal(b1-4)Glc,-0.259
same,glycan array binding signal (z-score),Gal(b1-4)Glc6S,-0.255
same,glycan array binding signal (z-score),Gal(b1-4)GlcNAc,-0.239
same,glycan array binding signal (z-score),[2],-0.202
same,glycan array binding signal (z-score),[3],-0.192
same,glycan array binding signal (z-score),[4],0.134
same,glycan array binding signal (z-score),[5],-0.133
same,glycan array binding signal (z-score),[6],-0.126
same,glycan array binding signal (z-score),[7],-0.157
same,glycan array binding signal (z-score),[8],-0.214
same,glycan array binding signal (z-score),[9],-0.15
same,glycan array binding signal (z-score),[10],-0.238
same,glycan array binding signal (z-score),[11],-0.242
same,glycan array binding signal (z-score),[12],0.313
same,glycan array binding signal (z-score),[13],0.352
same,glycan array binding signal (z-score),[14],-0.144
same,glycan array binding signal (z-score),[15],-0.137
same,glycan array binding signal (z-score),[16],1.01
same,glycan array binding signal (z-score),[17],0.512
same,glycan array binding signal (z-score),[18],2.67
same,glycan array binding signal (z-score),[19],5.09
same,glycan array binding signal (z-score),[20],-0.159
same,glycan array binding signal (z-score),[21],-0.022
same,glycan array binding signal (z-score),[22],-0.224
same,glycan array binding signal (z-score),[23],0.024
same,glycan array binding signal (z-score),[24],-0.096
same,glycan array binding signal (z-score),[25],-0.195
same,glycan array binding signal (z-score),[26],-0.251
same,glycan array binding signal (z-score),[27],-0.224
same,glycan array binding signal (z-score),[28],-0.249
same,glycan array binding signal (z-score),Gal(b1-6)Gal,-0.128
same,glycan array binding signal (z-score),Gal3S(b1-3)GalNAc,-0.255
same,glycan array binding signal (z-score),Gal3S(b1-3)GlcNAc,0.079
same,glycan array binding signal (z-score),[29],-0.244
same,glycan array binding signal (z-score),Gal3S(b1-4)Glc,-0.216
same,glycan array binding signal (z-score),Gal3S(b1-4)Glc6S,-0.054
